In PubChem BioAssay AID493208 (National Center for Advancing Translational Sciences (NCATS), 2011):
Hit rate of the full screen: of about 44,000 compounds, about 340 (0.77%) were called active. About 5% were inconclusive and are not listed. The call rests on the fitted dose curve; in most records, active means well fitted inhibition curve with a large enough effect; inconclusive means small, poorly fitted or top-dose-only effect; inactive means flat fitted curve, though single readings scatter. Some of the results follow.

Assay: Acumen qHTS Assay for Inhibitors of the mTORC1 Signaling Pathway in MEF (Tsc2-/-, p53-/-) Cells: Sytravon; further: nearly all actives have a fitted effect of over 50% in size;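 on activity change, negative = inhibition: plate controls were DMSO for no effect and rapamycin for full effect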
Details: phospho-rpS6 immunofluorescence/PI, 24 h; series mostly up to 38.3 µM; activity change, negative = inhibition: at the top concentration
Procedure, shortened: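 Compounds act on Tsc2-/-, p53-/- fibroblasts carrying an empty vector for 24 h before fixation and dual staining for phospho-S6 and DNA (propidium iodide). Values are percentages of cells above a rapamycin-defined pS6/PI threshold.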
Potency means the concentration at half of the fitted maximal effect.

Row | Compound | activity change, negative = inhibition | Potency
1 | CCN(CC)CCCNC(=O)C(=O)Nc1ccc2nc3n(c(=O)c2c1)CCCCC3 | inactive: -7.9% | 
2 | COc1ccc(/C=C/C(=O)Nc2ccc(Cl)cc2Cl)cc1 | inactive: -9.69% | 
3 | Cc1ccc(Cn2ccnc2SCC(=O)Nc2ccc3c(c2)OCCO3)cc1 | inactive: -7.58% | 
4 | Cc1ccc(NC(=O)Cn2cc(C(=O)c3ccco3)c3ccccc32)c(C)c1 | inactive: 2.8% | 
5 | Cc1ccccc1CNC(=O)c1cc2cccc3c2n1CC(C)S3 (configuration not stated) | inactive: 1.54% | 
6 | O=C(Nc1cccc(Cl)c1)c1cc(S(=O)(=O)N2CCCc3ccccc32)ccc1F | inactive: -12.8% | 
7 | CCOc1cc(C2CC(=O)Nc3c2c(=O)nc(SCc2cccc(Cl)c2)n3C)ccc1O (configuration not stated) | inactive: 0% | 
8 | COc1ccc(-c2cc(C(=O)Nc3sc4c(c3C(N)=O)CCC(C)C4)no2)cc1 (configuration not stated) | inactive: 16.3% | 
9 | CCOc1ccc(OCC)c(-n2cnnn2)c1 | inactive: -0.787% | 
10 | Fc1ccccc1N1CCN(c2ncnc3onc(-c4cccc(Cl)c4)c23)CC1 | inactive: -6.37% | 
11 | Cc1c(NC(=O)Nc2ccc(Cl)c(C(F)(F)F)c2)c(=O)n(-c2ccccc2)n1C | inactive: 4.73% | 
12 | CC(=O)Nc1ccc(NC(=O)c2nc(SCc3ccccc3C)ncc2Cl)cc1 | inactive: -6.07% | 
13 | COc1cccc(OCc2cc(=O)n3cc(C)sc3n2)c1 | inactive: -8.87% | 
14 | CCCCNC(=O)c1cc(-c2ccc(Cl)c(Cl)c2)on1 | inactive: -13% | 
15 | Cn1c(=O)c2c(-c3ccccc3Br)n(Cc3ccccc3)cc2n(C)c1=O | inactive: -1.3% | 
16 | NS(=O)(=O)c1ccc(NC(=O)CN2CCN(c3ccc(F)cc3)CC2)cc1 | inactive: 6.65% | 
17 | Cc1cccn2c(=O)cc(COc3ccc(NC(=O)C(C)Oc4ccccc4)cc3)nc12 (configuration not stated) | inactive: -0.348% | 
18 | COc1ccc(-c2cc3c(=O)n(CC(=O)Nc4cc(C)ccc4C)ccn3n2)cc1 | inactive: 0% | 
19 | COc1ccc(-n2c(SCC(=O)NC3CCCCC3)nc3c([nH]c4ccccc43)c2=O)cc1 | inactive: -4.56% | 
20 | Cc1ccc(Cl)cc1-n1ncc2c(NCCC3=CCCCC3)ncnc21 | inactive: -20.5% | 
21 | CCOc1ccc(NC(=O)CC2C(=O)N(c3cccc(C)c3)C(=O)N2CCC2=CCCCC2)cc1 (configuration not stated) | inactive: 4.13% | 

Row | Compound | activity change, negative = inhibition | Potency
22 | CCOc1ccc(NC(=O)CCc2c(C)nc3c(c(C)nn3-c3ccccc3)c2C)cc1 | inactive: 1.48% | 
23 | Cc1ccc(S(=O)(=O)n2nc(C)c(S(=O)(=O)N3CCCCC3)c2C)cc1 | inactive: -10.7% | 
24 | CCc1ccc(CN(Cc2ccco2)C(=O)c2ccc(C)cc2)cc1 | inactive: 4.21% | 
25 | CC(=O)Nc1ccccc1-c1nc2ccccc2n(C(C)C(=O)Nc2cccc(C)c2C)c1=O (configuration not stated) | inactive: -0.917% | 
26 | Cc1ccc(-n2c(=O)[nH]c3sc4c(c3c2=O)CCCC4)cc1 | inactive: 0% | 
27 | O=S(=O)(c1ccc(Cl)cc1)c1nnn2c1nc(NCc1ccccc1)c1sccc12 | inactive: -10.7% | 
28 | CC(=O)N(Cc1cccnc1)c1nc2cc(C)cc(C)c2s1 | inactive: -5% | 
29 | O=C(Nc1ccccc1)N(Cc1cccs1)c1ccc(Cl)cc1 | inactive: 1.73% | 
30 | COc1cc(OC)c(NC(=O)CN(C)S(=O)(=O)c2ccc3c(c2)CCCC(=O)N3)cc1Cl | inactive: -14.9% | 
31 | CCc1ccc(C(=O)c2cn(CC(=O)Nc3cccc(C)c3C)c3nc(C)ccc3c2=O)cc1 | inactive: -18.4% | 
32 | CCCCN(CC)C(=O)C1CCC(CNS(=O)(=O)c2cccc3nsnc23)CC1 (configuration not stated) | inactive: 1.51% | 
33 | COc1ccc(Cl)cc1NC(=O)CN1C(=O)CSc2ccc(S(=O)(=O)N3CCCC3)cc21 | inactive: -15.2% | 
34 | COc1ccccc1C(=O)N(Cc1ccco1)Cc1ccccc1F | inactive: -4.88% | 
35 | Cc1ccc(CNC(=O)c2cc(Sc3ccc(F)cc3F)nc3ccccc23)cc1 | inactive: 3.7% | 
36 | Cc1cccc(NC(=O)CSc2nc(C)c(Cc3ccccc3)c(=O)[nH]2)c1C | inactive: 2.61% | 
37 | CCC(C(=O)N(C)Cc1ccccc1)n1nc(C)c2sc3ccccc3c2c1=O (configuration not stated) | inactive: -3.74% | 
38 | COc1ccc(CCNC(=O)C2=C(C)C(=O)OC23CCCCC3)c(OC)c1 | inactive: 5.24% | 
39 | COc1ccc(CNC(=O)CCc2c(C)nn(-c3ccc(N4CCOCC4)nn3)c2C)cc1 | inactive: -5.05% | 
40 | CC(=O)N1CCCC1c1nc2ccccc2n1Cc1cc(C)ccc1C (configuration not stated) | inactive: 1.55% | 
41 | CCOC(=O)N1CCN(S(=O)(=O)N2CCCC(C(=O)NCc3ccccc3OC)C2)CC1 (configuration not stated) | inactive: 3.89% | 
42 | CCOC(=O)c1ccc(CN(Cc2ccc(F)cc2)S(=O)(=O)c2cc(C(=O)Nc3ccccc3CC)ccc2F)cc1 | inactive: -14.8% | 

Row | Compound | activity change, negative = inhibition | Potency
43 | COc1ccc(NC(=O)C2CCCN(S(=O)(=O)c3ccc4[nH]c(=O)ccc4c3)C2)cc1OC (configuration not stated) | inactive: -3.73% | 
44 | Cc1cccc(N2CCN(C(=O)CCCn3ncn4c(cc5occc54)c3=O)CC2)c1C | inactive: -10.2% | 
45 | Cn1c(=O)n(C)c2cc(N3CCOCC3)c(NS(=O)(=O)c3ccc(Br)cc3)cc21 | inactive: 6.34% | 
46 | CCOc1cc(CNCCSc2nnnn2C)cc(Cl)c1OCc1ccc(Cl)cc1 |  | active: 16.5 µM
47 | O=C(NCC(c1cccnc1)N1CCc2ccccc2C1)C(=O)Nc1cccc(Cl)c1 (configuration not stated) | inactive: 0.836% | 
48 | COc1ccc(-c2cc(C(=O)NCCc3ccccc3)c3c(-c4ccccc4)[nH]nc3n2)cc1 | inactive: -9.98% | 
49 | O=C(Cc1ccc(F)cc1)Nc1cccc(-c2nc3cccnc3s2)c1 | inactive: -8.05% | 
50 | Cc1ccc(CCNS(=O)(=O)c2ccc3c(c2)CCN3C(=O)CCC(=O)O)cc1 | inactive: 2.79% | 
51 | CCc1ccc(NC(=O)CCc2c(C)n(C)c3cc(-c4ccccc4C)nn3c2=O)cc1 | inactive: -2.17% | 
52 | CC(=O)N1CCc2c(sc3c2c(=O)n(-c2ccccc2)c(=O)n3Cc2cccc(C(F)(F)F)c2)C1 | inactive: -2.83% | 
53 | Cc1ccc(/C=C/c2nc3ccccc3n2S(=O)(=O)c2ccc(Br)cc2)cc1 | inactive: 0.547% | 
54 | Cc1ccccc1C(=O)N1CCCCC1CCN1CCCCC1 (configuration not stated) | inactive: -3.74% | 
55 | COc1ccc(N2CCN(C(=O)CCc3c(C)nc4cc(-c5cccc(F)c5)nn4c3C)CC2)cc1 | inactive: -10.6% | 
56 | COc1cccc(N=C2SC(C(=O)Nc3cccc(Cl)c3)CC(=O)N2C)c1 (configuration not stated) | inactive: -13.7% | 
57 | CCc1nn(CC(=O)NCCCN2CCN(C)CC2)c(=O)c2cc3occc3n12 | inactive: -7.12% | 
58 | CSc1ncc(C(=O)N2CCN(c3ccc(Cl)cc3)CC2)c(C)n1 | inactive: 0.299% | 
59 | COc1ccc(C(=O)c2c(N)c(-c3nc(-c4ccccc4)cs3)c3ccccn23)cc1 | inactive: -2.74% | 
60 | COC(=O)c1c(NC(=O)COc2ccc(Cl)cc2C)sc2c1CCCCC2 | inactive: 5.41% | 
61 | COc1ccc(OC)c(NC(=O)CSC2=Nc3ccccc3C3=NC(CCC(=O)NC4CCCCC4)C(=O)N23)c1 (configuration not stated) | inactive: -0.141% | 
62 | CSc1cccc(NC(=O)CC(c2ccc(F)cc2)N2Cc3ccccc3C2=O)c1 (configuration not stated) | inactive: -7.93% | 
